First the molecules themselves.
T1: RBFOX1 RRM RbFoxmut (Fox-RRM*) (Homo sapiens, UniProt Q9NWB1 109-208, R118D;E147R;N151S;E152T)
T1 sequence: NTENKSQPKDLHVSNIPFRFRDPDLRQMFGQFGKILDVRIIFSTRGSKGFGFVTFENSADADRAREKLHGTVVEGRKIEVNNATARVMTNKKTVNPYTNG

B1: GUCAAUU (DNA:RNA)
RNA: GGGAGACCGGAAUUCAGAUUGUCCGUCAAUUUUAAAUCCCGUCGUAGCCACCA
DNA 1: CAATCTGAATTCCGGTCTCCC
DNA 2: TGGTGGCTACGACGGGATT
B2: ACGCGGC (DNA:RNA)
RNA: GGGAGACCGGAAUUCAGAUUGUCCACGCGGCUUAAAUCCCGUCGUAGCCACCA
DNA 1: CAATCTGAATTCCGGTCTCCC
DNA 2: TGGTGGCTACGACGGGATT
B3: CGCCUAA (DNA:RNA)
RNA: B2 RNA with A25C, C26G, G27C, G29U, G30A, C31A
DNA 1: CAATCTGAATTCCGGTCTCCC
DNA 2: TGGTGGCTACGACGGGATT
B4: GAGCUAA (DNA:RNA)
RNA: B2 RNA with A25G, C26A, G29U, G30A, C31A
DNA 1: CAATCTGAATTCCGGTCTCCC
DNA 2: TGGTGGCTACGACGGGATT
B5: GCGCCGG (DNA:RNA)
RNA: B2 RNA with A25G, G29C, C31G
DNA 1: CAATCTGAATTCCGGTCTCCC
DNA 2: TGGTGGCTACGACGGGATT
B6: UCUUGUA (DNA:RNA)
RNA: B2 RNA with A25U, G27U, C28U, G30U, C31A
DNA 1: CAATCTGAATTCCGGTCTCCC
DNA 2: TGGTGGCTACGACGGGATT
B7: CGAAUUC (DNA:RNA)
RNA: B1 RNA with G25C, U26G, C27A, A29U, U31C
DNA 1: CAATCTGAATTCCGGTCTCCC
DNA 2: TGGTGGCTACGACGGGATT
B8: GGUCAGU (DNA:RNA)
RNA: B1 RNA with U26G, C27U, A28C, U30G
DNA 1: CAATCTGAATTCCGGTCTCCC
DNA 2: TGGTGGCTACGACGGGATT
B9: GUGUCUC (DNA:RNA)
RNA: B1 RNA with C27G, A28U, A29C, U31C
DNA 1: CAATCTGAATTCCGGTCTCCC
DNA 2: TGGTGGCTACGACGGGATT
B10: GUUUAGG (DNA:RNA)
RNA: B1 RNA with C27U, A28U, U30G, U31G
DNA 1: CAATCTGAATTCCGGTCTCCC
DNA 2: TGGTGGCTACGACGGGATT
B11: GGAGGCU (DNA:RNA)
RNA: B1 RNA with U26G, C27A, A28G, A29G, U30C
DNA 1: CAATCTGAATTCCGGTCTCCC
DNA 2: TGGTGGCTACGACGGGATT
B12: UAACGAU (DNA:RNA)
RNA: B2 RNA with A25U, C26A, G27A, G30A, C31U
DNA 1: CAATCTGAATTCCGGTCTCCC
DNA 2: TGGTGGCTACGACGGGATT
B13: AUUGGAC (DNA:RNA)
RNA: B2 RNA with C26U, G27U, C28G, G30A
DNA 1: CAATCTGAATTCCGGTCTCCC
DNA 2: TGGTGGCTACGACGGGATT
B14: AUUUAAC (DNA:RNA)
RNA: B2 RNA with C26U, G27U, C28U, G29A, G30A
DNA 1: CAATCTGAATTCCGGTCTCCC
DNA 2: TGGTGGCTACGACGGGATT
B15: AGCAUGG (DNA:RNA)
RNA: B2 RNA with C26G, G27C, C28A, G29U, C31G
DNA 1: CAATCTGAATTCCGGTCTCCC
DNA 2: TGGTGGCTACGACGGGATT
B16: AUCCAAU (DNA:RNA)
RNA: B1 RNA with G25A, A28C, U30A
DNA 1: CAATCTGAATTCCGGTCTCCC
DNA 2: TGGTGGCTACGACGGGATT
B17: UGUGGUA (DNA:RNA)
RNA: B2 RNA with A25U, C26G, G27U, C28G, G30U, C31A
DNA 1: CAATCTGAATTCCGGTCTCCC
DNA 2: TGGTGGCTACGACGGGATT
B18: UUCAACG (DNA:RNA)
RNA: B1 RNA with G25U, U30C, U31G
DNA 1: CAATCTGAATTCCGGTCTCCC
DNA 2: TGGTGGCTACGACGGGATT
B19: GUGGGCU (DNA:RNA)
RNA: B1 RNA with C27G, A28G, A29G, U30C
DNA 1: CAATCTGAATTCCGGTCTCCC
DNA 2: TGGTGGCTACGACGGGATT
B20: GAAUAGC (DNA:RNA)
RNA: B2 RNA with A25G, C26A, G27A, C28U, G29A
DNA 1: CAATCTGAATTCCGGTCTCCC
DNA 2: TGGTGGCTACGACGGGATT

Numbering of substitutions follows the chain as printed; changes in the protein carry UniProt numbers. Some of the results follow.

In this test the target is T1, RBFOX1 RRM RbFoxmut (Fox-RRM*). Kind of test: EMSA; HiTS-Eq, 1 nM pool, 10 min; buffer printed only for the single-RNA assays: 10 mM Tris pH 7.5, 150 mM NaCl, 3.4 mM EDTA, 0.001% NP-40, 30 C. To be noted: tags: His6 N-terminal (pET28a); label: 5' 32P. A digest of the protocol:
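Purified wild-type or mutant RbFox RRM at increasing concentrations was equilibrated with 1 nM of 5′-radiolabelled RNA carrying 7 randomized nucleotides for 10 min in 50 µL. Unbound RNA was separated by 8% native PAGE and sequenced. Relative association constants came from read-count changes of each RNA species compared with the control reaction, normalised to the cognate motif.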
Regarding B1, the binding signal is 0.066 KA relative to UGCAUGU.

Take B2: the binding signal is 0.119 KA relative to UGCAUGU.

As for B3, the binding signal was 0.104 KA relative to UGCAUGU.

In the case of B4, the binding signal was 0.0915 KA relative to UGCAUGU.

For the molecule B5, the binding signal was 0.0967 KA relative to UGCAUGU.

Take B6: the binding signal was 0.236 KA relative to UGCAUGU.

On to B7, for which the binding signal was 0.076 KA relative to UGCAUGU.

As for B8, the binding signal is 0.106 KA relative to UGCAUGU.

Turning to B9, the binding signal is 0.144 KA relative to UGCAUGU.

Consider B10, for which the binding signal was 0.0929 KA relative to UGCAUGU.

Turning to B11, the binding signal is 0.0786 KA relative to UGCAUGU.

Consider B12, for which the binding signal is 0.028 KA relative to UGCAUGU.

For B13, the binding signal was 0.0636 KA relative to UGCAUGU.

In the case of B14, the binding signal is 0.126 KA relative to UGCAUGU.

Take B15: the binding signal was 0.538 KA relative to UGCAUGU.

Consider B16, for which the binding signal was 0.0787 KA relative to UGCAUGU.

Take B17: the binding signal was 0.22 KA relative to UGCAUGU.

With B18, the binding signal was 0.114 KA relative to UGCAUGU.

As to B19, the binding signal is 0.096 KA relative to UGCAUGU.

Take B20: the binding signal was 0.118 KA relative to UGCAUGU.

(Values after PMC9911399, “Two distinct binding modes provide the RNA-binding protein RbFox with extraordinary sequence specificity”.)
